According to publication PMC4336329 (PLoS ONE, 2015):
Out of some 310,000 compounds screened, about 14,000 (4.5%) showed an effect of 50% or more. The effect is printed as a negative number. The list shows a part of the results.

biological target: human ether-à-go-go-related gene (hERG) potassium channel (human, UniProt Q12809); assay: primary screen, population patch clamp on CHO cells stably expressing hERG
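Also: peak tail current of the secondary pulse compared with the same well before compound.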

human ether-à-go-go-related gene (hERG) potassium channel, sequence (Q12809 whole entry, looked up): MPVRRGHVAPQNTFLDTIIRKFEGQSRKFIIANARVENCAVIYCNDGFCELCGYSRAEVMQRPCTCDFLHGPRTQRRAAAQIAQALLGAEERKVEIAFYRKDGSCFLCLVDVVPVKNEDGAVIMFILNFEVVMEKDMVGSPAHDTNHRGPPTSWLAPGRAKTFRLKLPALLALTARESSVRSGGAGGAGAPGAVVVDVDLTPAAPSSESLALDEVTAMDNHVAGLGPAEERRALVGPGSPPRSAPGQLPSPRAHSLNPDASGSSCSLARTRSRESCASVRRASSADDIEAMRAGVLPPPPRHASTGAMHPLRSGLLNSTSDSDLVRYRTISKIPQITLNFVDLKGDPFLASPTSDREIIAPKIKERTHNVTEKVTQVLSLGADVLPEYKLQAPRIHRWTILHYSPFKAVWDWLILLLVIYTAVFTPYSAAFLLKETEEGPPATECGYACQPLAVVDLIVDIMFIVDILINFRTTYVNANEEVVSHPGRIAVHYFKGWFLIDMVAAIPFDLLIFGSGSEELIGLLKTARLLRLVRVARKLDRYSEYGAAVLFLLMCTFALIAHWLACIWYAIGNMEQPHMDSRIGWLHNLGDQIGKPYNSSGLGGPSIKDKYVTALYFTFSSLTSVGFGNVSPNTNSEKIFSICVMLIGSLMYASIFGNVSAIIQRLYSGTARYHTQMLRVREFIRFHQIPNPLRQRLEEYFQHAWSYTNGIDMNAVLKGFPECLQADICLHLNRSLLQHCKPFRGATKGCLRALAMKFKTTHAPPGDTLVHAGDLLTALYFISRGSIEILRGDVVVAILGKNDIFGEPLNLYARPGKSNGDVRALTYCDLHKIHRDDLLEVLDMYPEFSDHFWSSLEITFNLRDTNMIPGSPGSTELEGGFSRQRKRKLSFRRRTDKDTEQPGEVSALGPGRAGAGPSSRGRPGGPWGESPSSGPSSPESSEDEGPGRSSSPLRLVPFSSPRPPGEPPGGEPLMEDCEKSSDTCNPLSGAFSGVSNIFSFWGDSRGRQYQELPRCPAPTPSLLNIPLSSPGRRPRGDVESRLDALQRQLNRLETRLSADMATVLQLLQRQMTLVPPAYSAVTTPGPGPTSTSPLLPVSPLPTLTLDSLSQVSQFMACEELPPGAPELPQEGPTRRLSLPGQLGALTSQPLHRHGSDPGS

Structure (SMILES)	hERG current change (%, negative = inhibition) at 10uM
COCC(C)N=C1SCCN1Cc1ccccc1 (stereo not drawn)	23.7%
CC(C)(C)C(=O)N(Cc1ccc(Cl)cc1)c1cnccn1	5.17%
CC(C(=O)c1c[nH]c2ccccc12)N1CCSCC1 (stereo not drawn)	-1.66%
CCOc1cc(C2Nc3cccc4cccc(c34)N2)ccc1O	2.24%
COc1cccc(C2c3[nH]c4ccccc4c3C[C@H]3C(=O)N(CCCOC(C)C)CC(=O)N23)c1 (stereo partly drawn)	24.4%
COc1cc2c(cc1OC)C(c1cc(OC)c(OC)cc1[N+](=O)[O-])N(C(C)=O)CC2 (stereo not drawn)	26%
NNC(=O)c1cccc(COc2cccc(Br)c2)c1	-5.93%
O=C(Nc1ccc2c(c1)OCO2)C1CCCN1C(=O)Nc1ccccc1 (stereo not drawn)	2.04%
COc1ccc(NC(=O)C2Cc3ccccc3CN2C(=O)c2ccco2)cc1 (stereo not drawn)	-30.4%
CNc1c(NS(=O)(=O)c2ccc(C3CCCCC3)cc2)c(=O)oc2ccccc12	21.3%
O=C(NC(=S)N1CCCc2ccccc21)c1ccc(Br)cc1	14.2%
Nn1c(SCC(=O)NC2CCCCC2)nnc1-c1ccc(Cl)cc1	-5.97%
CC[N+](CC)(CC#CCO)CC#Cc1ccccc1.[Br-]	33.7%
Cc1noc(NS(=O)(=O)c2ccc(N3CC(O)=C(c4ccccc4)C3=N)cc2)c1C	20.5%
CCCn1nc(C(=O)Nc2nc3ccccc3[nH]2)c2ccccc2c1=O	-15%
Cc1ccc2oc3nc(C)c(C(=O)O)cc3c(=O)c2c1	-0.671%
Cc1c(-c2ccccc2)oc2c(C(=O)N3CCN(c4ccccc4F)CC3)cccc2c1=O	-8.63%
Cc1[nH]c(=O)[nH]c(=O)c1S(=O)(=O)Nc1ccc(Cl)c([N+](=O)[O-])c1	19.5%
CNC(=O)C1CC(=O)N(CCc2ccc(OC)cc2)C(=Nc2ccc(OC)cc2)S1 (stereo not drawn)	-9.54%
COc1ccc(-c2cc(-c3cccs3)c(C#N)c(SCC(=O)NCc3ccco3)n2)cc1	5.02%
CCN(CC)S(=O)(=O)c1ccc(N2CCCC2)c(NC(=O)Cc2ccc(OC)cc2)c1	-7.53%
O=C1NC2(CCCCC2)C(=O)N1c1cccc(Cl)c1	12.5%
O=C(O)CNC(=O)c1ccc(NS(=O)(=O)c2ccc3ccccc3c2)cc1	19.1%
COc1ccc(-c2oc3ccccc3c2C(=O)Oc2ccccc2)cc1	19.2%
Cc1ccc2c(c1)N(CC(=O)N1CCCC1)C(=O)C(C)O2 (stereo not drawn)	19.4%
CCOC(=O)c1c(C)[nH]c(C(=O)CN2C(=O)NC(C)(c3ccc(C)cc3)C2=O)c1C (stereo not drawn)	4.54%
CCOc1ccc(N(CC(=O)Nc2c(C)n(C)n(-c3ccccc3)c2=O)S(=O)(=O)c2ccc(F)cc2)cc1	-17.6%

Structure (SMILES)	hERG current change (%, negative = inhibition) at 10uM
COc1cc(C(=O)NCc2nnc(SCC(=O)NC3CCCCC3)o2)cc(OC)c1OC	13.6%
CCOC(=O)Cn1nc(/C=C/c2ccc(OC)cc2)ccc1=O	-36.3%
COCc1ccc2oc(C(=O)O)cc2c1	6.1%
COc1ccc(N(CC(=O)NCc2ccc(C)cc2)S(=O)(=O)c2c(C)nn(C)c2C)cc1	5.17%
CC(C)COP(=O)(c1ccc(N(C)C)cc1)C(O)c1ccncc1 (stereo not drawn)	-3.58%
CCOC(=O)c1c(C)[nH]c(C)c1C(=O)COC(=O)[C@@H]1CCCN1S(=O)(=O)c1ccc(Cl)cc1	-24.5%
CCOc1ccc(N(CC(=O)Nc2ccccc2C(=O)NC(C)CC)S(C)(=O)=O)cc1 (stereo not drawn)	-13.3%
C=CCNC(=S)NNC(=O)c1cc(C)nc2ccccc12	14.7%
Cn1c(=O)c(=O)n(C)c2cc(N3CCCCC3)c(NS(=O)(=O)c3ccc([N+](=O)[O-])cc3)cc21	-50.6%
CN(C(=O)COC(=O)c1cccc(NS(=O)(=O)c2ccc(F)c(F)c2)c1)C1CCS(=O)(=O)C1 (stereo not drawn)	29.4%
COc1ccc([C@H]2CC(=O)C=C(c3ccc(OC)cc3OC)C2)cc1	12.9%
O=C1c2c([N+](=O)[O-])cc([N+](=O)[O-])cc2S(=O)N1Cc1ccccc1 (stereo not drawn)	17.9%
COc1ccc(C(=O)N/C(=C\c2cccc3ccccc23)C(=O)N2CCN(C)CC2)cc1OC	-50.6%
Cc1ccc(C(=O)NCCNC(=O)COc2ccc(Cl)cc2)cn1	2.76%
CC1CCCCN1C(=O)CCS(=O)(=O)c1cccc2nonc12 (stereo not drawn)	-0.528%
CC(=O)Nc1ccc(S(=O)(=O)N2CCC(C(=O)c3ccc(F)cc3)CC2)cc1	-34.6%
Cc1ccc(NC(=O)Nc2cccs2)nc1	4.76%
O=C(/C=C\N1CCOCC1)c1ccc(Br)cc1	-6.49%
COc1ccccc1OCCSc1nc2ccccc2n1CC(O)CO (stereo not drawn)	13.9%
COc1ccc(S(=O)(=O)Nc2cccc(-c3ccc4nncn4n3)c2)cc1	16.3%
CN1C(=O)C(O)(CC(=O)/C=C/c2ccco2)c2ccccc21 (stereo not drawn)	14.3%
O=C1NC(=S)N(C2CC2)C(=O)/C1=C/c1ccc2c(c1)CCN2CCCCl	6.53%
O=C(O)c1ccc(N2CC3CC(C2)c2cccc(=O)n2C3)c(NS(=O)(=O)c2cccc(C(F)(F)F)c2)c1 (stereo not drawn)	3.22%
O=[N+]([O-])c1ccccc1NCc1ccc(Cl)cc1	-19.5%
Nc1nc2ccccc2n1/N=C/c1ccc2c(c1)OCO2	24.6%
S=C(c1ccccc1)N(c1ccccc1)c1ccccc1	7.21%
Cn1c(C(=O)N2CCN(Cc3ccc4c(c3)OCO4)CC2)cc2c(=O)n(C)c3ccccc3c21	-9.15%
